In paper PMC8565340:
These are yes or no findings as the source states them, for the method shown. Binding seen in cells or lysates may run through a third protein. Some results given as binding are weak or reduced against the parent protein; the word gives no strength. Values belong to the molecule of their own block, whether it stands above or below them.

Protein sequences, listed by entry. Tags and fused reporters are not part of them.
UniProt P31749: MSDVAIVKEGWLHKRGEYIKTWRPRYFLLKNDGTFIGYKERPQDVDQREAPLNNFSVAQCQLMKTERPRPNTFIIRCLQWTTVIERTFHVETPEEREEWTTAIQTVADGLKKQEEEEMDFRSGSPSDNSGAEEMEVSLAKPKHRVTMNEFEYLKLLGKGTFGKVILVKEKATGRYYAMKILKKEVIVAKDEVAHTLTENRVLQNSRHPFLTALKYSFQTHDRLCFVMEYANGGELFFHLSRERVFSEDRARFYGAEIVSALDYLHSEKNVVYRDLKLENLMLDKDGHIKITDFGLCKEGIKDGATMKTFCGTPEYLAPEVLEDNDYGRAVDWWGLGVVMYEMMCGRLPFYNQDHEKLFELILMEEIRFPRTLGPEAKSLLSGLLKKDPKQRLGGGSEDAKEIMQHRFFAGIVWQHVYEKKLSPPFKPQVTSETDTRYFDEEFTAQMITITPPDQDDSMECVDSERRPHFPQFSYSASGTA
UniProt Q9HAU5: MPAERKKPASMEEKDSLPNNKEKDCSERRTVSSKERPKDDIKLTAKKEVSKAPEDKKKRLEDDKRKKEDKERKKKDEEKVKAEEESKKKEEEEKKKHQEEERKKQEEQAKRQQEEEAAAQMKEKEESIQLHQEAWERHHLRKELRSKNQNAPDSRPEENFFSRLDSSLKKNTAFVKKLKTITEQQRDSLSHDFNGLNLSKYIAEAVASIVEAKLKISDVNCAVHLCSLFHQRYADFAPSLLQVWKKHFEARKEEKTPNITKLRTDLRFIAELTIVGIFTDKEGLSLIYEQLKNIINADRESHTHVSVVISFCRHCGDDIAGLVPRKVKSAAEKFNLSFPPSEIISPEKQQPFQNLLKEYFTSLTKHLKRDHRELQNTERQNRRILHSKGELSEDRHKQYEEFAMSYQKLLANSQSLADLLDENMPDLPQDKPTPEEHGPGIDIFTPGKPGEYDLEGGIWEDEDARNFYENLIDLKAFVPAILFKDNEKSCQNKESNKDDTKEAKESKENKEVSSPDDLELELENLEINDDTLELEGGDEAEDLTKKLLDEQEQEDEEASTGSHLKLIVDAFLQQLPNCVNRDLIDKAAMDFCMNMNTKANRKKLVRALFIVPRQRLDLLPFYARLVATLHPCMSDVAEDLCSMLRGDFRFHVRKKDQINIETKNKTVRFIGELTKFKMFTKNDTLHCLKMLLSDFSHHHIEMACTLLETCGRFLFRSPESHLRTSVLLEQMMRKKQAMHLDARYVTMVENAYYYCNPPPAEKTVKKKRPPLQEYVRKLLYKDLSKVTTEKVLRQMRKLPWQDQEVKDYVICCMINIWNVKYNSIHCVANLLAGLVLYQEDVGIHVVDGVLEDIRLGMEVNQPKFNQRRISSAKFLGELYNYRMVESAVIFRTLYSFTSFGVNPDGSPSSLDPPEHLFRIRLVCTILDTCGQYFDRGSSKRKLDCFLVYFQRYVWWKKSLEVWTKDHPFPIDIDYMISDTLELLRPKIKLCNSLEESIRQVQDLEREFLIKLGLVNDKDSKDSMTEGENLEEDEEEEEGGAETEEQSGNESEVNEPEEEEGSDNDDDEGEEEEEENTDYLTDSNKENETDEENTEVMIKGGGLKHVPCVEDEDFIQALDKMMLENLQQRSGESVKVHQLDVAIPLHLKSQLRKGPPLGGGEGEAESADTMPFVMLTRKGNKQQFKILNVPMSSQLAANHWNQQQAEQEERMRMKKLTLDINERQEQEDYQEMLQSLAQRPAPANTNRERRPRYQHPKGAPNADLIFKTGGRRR
UniProt Q00987: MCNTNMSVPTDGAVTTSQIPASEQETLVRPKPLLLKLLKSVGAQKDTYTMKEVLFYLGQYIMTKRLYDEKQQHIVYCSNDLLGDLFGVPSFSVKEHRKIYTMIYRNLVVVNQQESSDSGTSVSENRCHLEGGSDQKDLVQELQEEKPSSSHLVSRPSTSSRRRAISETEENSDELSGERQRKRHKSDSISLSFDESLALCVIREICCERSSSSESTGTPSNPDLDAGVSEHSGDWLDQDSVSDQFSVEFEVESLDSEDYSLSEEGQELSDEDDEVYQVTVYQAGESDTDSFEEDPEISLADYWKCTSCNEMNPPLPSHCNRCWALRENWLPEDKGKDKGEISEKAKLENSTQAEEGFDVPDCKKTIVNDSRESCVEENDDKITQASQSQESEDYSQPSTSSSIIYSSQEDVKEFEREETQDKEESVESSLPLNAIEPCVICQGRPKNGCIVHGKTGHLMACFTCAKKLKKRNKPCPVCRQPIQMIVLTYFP
UniProt P06730: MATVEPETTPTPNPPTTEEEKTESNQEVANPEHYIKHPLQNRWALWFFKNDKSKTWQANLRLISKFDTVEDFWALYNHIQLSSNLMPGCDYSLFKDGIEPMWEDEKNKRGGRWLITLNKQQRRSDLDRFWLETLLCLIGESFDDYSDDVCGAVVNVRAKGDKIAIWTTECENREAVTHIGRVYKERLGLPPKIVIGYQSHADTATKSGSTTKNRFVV

Tests used:
[1] = target: T1, UPF3X (human (endogenous in HEK293FT)) (UniProt Q9BZI7); test: co-IP; endogenous UPF3X immunoprecipitated from HEK293FT WT cell extract; lysis 50 mM Tris-HCl pH 7.4, 300 mM NaCl, 0.05% NP40; extracts incubated with RNase A or BSA; western blot
T1 sequence: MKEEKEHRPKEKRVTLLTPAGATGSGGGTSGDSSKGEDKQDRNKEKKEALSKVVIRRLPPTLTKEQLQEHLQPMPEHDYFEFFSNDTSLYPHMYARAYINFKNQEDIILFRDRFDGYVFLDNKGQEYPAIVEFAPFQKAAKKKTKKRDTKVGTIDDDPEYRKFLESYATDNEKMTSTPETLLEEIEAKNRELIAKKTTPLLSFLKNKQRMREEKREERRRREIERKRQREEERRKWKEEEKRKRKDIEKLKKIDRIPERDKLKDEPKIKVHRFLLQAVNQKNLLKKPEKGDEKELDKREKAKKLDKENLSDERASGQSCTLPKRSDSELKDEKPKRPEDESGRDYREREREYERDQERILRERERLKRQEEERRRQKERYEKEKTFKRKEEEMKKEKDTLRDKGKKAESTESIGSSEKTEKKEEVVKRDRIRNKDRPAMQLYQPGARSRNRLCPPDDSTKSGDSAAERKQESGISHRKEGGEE

[2] = target: T2, UPF1 (human (endogenous in HEK293FT)) (UniProt Q92900); test: co-IP; endogenous UPF1 immunoprecipitated from HEK293FT WT cells transfected with Globin Ter plasmid (stimulation of NMD); extracts incubated with RNase A or BSA; western blot
T2 sequence: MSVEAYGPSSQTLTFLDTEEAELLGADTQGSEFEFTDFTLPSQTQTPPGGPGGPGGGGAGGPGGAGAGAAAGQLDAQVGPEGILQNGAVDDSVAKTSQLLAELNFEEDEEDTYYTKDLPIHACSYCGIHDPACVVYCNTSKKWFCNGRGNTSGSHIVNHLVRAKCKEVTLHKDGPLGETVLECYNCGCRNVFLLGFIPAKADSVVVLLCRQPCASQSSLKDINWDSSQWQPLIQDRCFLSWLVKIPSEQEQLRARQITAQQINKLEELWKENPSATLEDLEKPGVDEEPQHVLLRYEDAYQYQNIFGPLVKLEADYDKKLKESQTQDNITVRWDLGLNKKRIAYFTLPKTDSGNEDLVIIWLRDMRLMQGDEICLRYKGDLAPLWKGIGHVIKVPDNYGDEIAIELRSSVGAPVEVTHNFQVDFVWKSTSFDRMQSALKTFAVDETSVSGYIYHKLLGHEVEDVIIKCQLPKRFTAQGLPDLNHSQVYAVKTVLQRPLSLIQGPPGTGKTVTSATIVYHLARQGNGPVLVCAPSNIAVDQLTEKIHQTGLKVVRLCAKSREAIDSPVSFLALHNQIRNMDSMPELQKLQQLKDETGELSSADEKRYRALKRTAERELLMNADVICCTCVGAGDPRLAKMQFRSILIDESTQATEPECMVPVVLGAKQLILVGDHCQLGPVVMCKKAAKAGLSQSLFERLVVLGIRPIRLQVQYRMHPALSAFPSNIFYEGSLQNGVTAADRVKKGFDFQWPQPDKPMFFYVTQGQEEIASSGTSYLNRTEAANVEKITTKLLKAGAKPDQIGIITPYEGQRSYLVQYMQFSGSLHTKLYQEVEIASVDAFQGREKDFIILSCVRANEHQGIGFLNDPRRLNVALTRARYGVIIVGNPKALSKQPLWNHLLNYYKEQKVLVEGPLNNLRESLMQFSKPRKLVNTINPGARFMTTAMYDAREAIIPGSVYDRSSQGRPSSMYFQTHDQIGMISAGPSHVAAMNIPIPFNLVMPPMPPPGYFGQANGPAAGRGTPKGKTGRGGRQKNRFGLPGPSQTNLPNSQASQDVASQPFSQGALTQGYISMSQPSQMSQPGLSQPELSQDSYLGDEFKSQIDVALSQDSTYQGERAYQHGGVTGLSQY

[3] = target: AKT1 (human (endogenous in HEK293FT)) (UniProt P31749); test: proximity ligation; Duolink in situ kit, antibodies to the endogenous proteins in cells; untreated cells and cells with control, UPF1 or UPF2 siRNA
[4] = target: AKT1 (human (endogenous in HEK293FT)) (UniProt P31749); test: co-IP; endogenous AKT1 immunoprecipitated from HEK293FT WT whole cell extract; lysis 25 mM Tris pH 7.5, 150 mM NaCl, 1 mM EDTA, 1% Triton X100; extracts incubated with RNase A or BSA; western blot
[5] = target: T2, UPF1 (human (endogenous in HEK293FT)); test: co-IP; endogenous UPF1 immunoprecipitated from HEK293FT WT cell extract without stimulation of NMD; lysis 50 mM Tris-HCl pH 7.4, 300 mM NaCl, 0.05% NP40; western blot
[6] = target: AKT1 (human (endogenous in HEK293FT)) (UniProt P31749); test: co-IP; endogenous AKT1 immunoprecipitated from the cytoplasmic fraction of HEK293FT WT cells transfected with Globin Ter; control or UPF1 siRNA; western blot

binding [1]: binds
Molecule: AKT1 (from UniProt P31749 1-480) (enzyme)

binding [2]: binds | binding [3]: no binding | binding [4]: no binding | binding [1]: binds | binding [5]: binds
Molecule: UPF2 (from UniProt Q9HAU5 1-1272)

binding [3]: binds | binding [4]: binds
Molecule: E3 ubiquitin-protein ligase mouse double minute 2 (MDM2) (from UniProt Q00987 1-491)

binding [2]: no binding | binding [3]: no binding | binding [4]: no binding | binding [5]: no binding
Molecule: eIF4E (from UniProt P06730 1-217)

binding [2]: binds | binding [3]: binds | binding [6]: binds | binding [4]: binds | binding [5]: binds
B1: UPF3X (protein, UniProt Q9BZI7 1-483)
chain: T1 sequence

binding [1]: binds
B2: UPF1 (protein, UniProt Q92900 1-1129)
chain: T2 sequence
